Measurements: PMC10442006
Read-outs that look alike come from different tables or passages of the source. These are yes or no findings as the source states them, for the method shown. For some of these results: In cells and extracts the contact can be indirect. Some results given as binding are weak or reduced against the parent protein; the word gives no strength. Tags and fused reporters may be left off the sequences shown. Blank lines part the entries; values can stand above or below the molecule they belong to.

Chains of the proteins cited; added tags and fusions are not shown.
UniProt A4GSN8: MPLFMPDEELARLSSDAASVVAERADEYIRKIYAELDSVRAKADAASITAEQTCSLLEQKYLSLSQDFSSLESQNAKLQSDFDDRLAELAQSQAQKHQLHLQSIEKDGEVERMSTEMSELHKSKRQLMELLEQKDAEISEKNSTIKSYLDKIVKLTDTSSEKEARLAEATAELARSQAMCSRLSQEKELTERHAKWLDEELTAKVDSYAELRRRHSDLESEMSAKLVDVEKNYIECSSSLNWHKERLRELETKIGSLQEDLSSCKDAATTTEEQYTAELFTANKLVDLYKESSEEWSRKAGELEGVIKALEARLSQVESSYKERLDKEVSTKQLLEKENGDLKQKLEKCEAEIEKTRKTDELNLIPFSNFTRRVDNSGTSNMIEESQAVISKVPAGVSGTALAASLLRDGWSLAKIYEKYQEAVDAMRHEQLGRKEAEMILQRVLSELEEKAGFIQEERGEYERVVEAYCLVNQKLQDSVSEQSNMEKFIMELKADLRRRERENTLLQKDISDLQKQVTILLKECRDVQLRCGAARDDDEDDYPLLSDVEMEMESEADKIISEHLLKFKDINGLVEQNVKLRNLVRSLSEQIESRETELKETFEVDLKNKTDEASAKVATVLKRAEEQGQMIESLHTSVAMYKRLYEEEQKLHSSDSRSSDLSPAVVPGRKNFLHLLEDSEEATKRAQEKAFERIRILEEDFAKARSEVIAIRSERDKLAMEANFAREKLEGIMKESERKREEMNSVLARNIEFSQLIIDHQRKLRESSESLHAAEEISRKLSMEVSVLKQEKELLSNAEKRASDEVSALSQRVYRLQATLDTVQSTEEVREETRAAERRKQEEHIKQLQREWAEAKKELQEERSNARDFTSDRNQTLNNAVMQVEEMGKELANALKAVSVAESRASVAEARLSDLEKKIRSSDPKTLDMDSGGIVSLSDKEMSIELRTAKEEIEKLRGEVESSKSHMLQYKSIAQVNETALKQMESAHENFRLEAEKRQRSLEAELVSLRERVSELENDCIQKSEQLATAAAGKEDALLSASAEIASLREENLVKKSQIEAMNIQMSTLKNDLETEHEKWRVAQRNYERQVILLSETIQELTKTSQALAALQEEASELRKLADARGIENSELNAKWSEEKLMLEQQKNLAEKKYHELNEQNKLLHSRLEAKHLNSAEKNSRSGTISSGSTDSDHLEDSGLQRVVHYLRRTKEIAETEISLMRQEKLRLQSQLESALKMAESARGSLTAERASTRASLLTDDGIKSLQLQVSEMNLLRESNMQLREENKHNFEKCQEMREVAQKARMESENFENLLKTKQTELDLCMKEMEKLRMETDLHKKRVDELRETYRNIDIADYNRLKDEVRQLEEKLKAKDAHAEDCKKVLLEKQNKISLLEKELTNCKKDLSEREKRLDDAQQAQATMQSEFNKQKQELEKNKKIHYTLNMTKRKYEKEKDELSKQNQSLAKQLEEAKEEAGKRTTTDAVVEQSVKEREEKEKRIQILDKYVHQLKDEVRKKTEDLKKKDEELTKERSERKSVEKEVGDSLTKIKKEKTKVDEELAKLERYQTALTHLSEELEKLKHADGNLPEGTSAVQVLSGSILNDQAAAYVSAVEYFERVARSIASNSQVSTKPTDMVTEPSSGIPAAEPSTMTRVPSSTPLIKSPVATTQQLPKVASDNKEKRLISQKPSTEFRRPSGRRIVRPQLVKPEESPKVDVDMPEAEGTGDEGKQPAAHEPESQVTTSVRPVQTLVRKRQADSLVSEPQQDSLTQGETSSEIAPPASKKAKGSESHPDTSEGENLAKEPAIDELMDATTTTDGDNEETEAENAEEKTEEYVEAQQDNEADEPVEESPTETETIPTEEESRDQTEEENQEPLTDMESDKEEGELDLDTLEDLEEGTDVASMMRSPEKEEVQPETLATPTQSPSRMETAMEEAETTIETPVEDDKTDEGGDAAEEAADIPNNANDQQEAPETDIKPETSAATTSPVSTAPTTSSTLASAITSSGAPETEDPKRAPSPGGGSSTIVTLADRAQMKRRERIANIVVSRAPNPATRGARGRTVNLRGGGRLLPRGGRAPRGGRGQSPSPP

Key:
[1] = molecular target: T1, SnRK2.2-nLUC (Arabidopsis thaliana) (UniProt Q39192); experiment: split reporter; split-luciferase complementation (LCI): cLUC and nLUC fusions co-infiltrated by A. tumefaciens GV3101 into N. benthamiana leaves; LUC signal with 1 mM D-luciferin about 2 days after infiltration
T1 sequence: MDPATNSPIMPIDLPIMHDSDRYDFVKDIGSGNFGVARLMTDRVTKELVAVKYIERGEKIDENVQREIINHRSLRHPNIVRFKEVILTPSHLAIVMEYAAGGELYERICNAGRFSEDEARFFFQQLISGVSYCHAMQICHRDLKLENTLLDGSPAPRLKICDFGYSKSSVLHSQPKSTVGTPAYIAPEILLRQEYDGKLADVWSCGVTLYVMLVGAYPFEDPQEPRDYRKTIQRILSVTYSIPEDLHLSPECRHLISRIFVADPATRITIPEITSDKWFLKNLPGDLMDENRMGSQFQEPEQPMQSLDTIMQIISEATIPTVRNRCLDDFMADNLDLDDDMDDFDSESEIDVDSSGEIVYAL

[2] = molecular target: T2, SnRK2.3-nLUC (Arabidopsis thaliana) (UniProt Q39193); experiment: as above
T2 sequence: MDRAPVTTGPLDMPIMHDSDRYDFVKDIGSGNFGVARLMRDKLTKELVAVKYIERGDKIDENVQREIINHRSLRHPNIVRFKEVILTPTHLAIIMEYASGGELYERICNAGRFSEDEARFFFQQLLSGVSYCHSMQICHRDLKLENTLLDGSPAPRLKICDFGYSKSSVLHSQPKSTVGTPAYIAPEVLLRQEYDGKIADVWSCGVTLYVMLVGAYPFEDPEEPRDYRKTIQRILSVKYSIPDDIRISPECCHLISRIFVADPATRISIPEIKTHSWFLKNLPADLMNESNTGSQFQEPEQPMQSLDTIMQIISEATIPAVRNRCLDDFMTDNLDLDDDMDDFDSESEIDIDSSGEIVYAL

[3] = molecular target: T3, SnRK2.6-nLUC (Arabidopsis thaliana) (UniProt Q940H6); experiment: as above
T3 sequence: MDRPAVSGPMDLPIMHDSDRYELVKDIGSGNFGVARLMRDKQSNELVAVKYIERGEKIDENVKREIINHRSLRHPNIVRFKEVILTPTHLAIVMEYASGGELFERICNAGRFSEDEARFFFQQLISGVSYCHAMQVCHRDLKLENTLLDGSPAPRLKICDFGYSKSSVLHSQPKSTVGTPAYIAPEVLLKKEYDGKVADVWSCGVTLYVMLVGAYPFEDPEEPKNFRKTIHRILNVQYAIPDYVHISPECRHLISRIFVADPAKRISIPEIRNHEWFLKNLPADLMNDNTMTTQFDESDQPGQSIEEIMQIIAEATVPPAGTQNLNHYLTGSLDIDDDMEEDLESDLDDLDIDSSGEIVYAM

[4] = molecular target: T4, SnRK2.2 fused to the GAL4 BD (Arabidopsis thaliana) (UniProt Q39192); experiment: two-hybrid; NUA or ESD4 on the GAL4 AD (pGADT7), SnRK2s on the GAL4 BD (pGBKT7), co-transformed into S. cerevisiae AH109; growth on -Leu/-Trp/-His (with 3-AT) or -Leu/-Trp/-His/-Ade
T4 sequence: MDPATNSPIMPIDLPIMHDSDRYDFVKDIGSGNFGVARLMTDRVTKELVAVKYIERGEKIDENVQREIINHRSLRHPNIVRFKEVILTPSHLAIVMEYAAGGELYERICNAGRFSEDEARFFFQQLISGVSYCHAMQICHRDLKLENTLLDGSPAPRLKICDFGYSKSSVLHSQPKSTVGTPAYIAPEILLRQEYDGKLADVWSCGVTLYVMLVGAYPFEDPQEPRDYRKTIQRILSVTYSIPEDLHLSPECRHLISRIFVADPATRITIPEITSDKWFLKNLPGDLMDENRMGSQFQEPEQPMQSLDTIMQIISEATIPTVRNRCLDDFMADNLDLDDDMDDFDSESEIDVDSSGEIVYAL

[5] = molecular target: T1, SnRK2.2-nLUC (Arabidopsis thaliana); experiment: split reporter; split-luciferase complementation (LCI): cLUC and nLUC fusions co-infiltrated by A. tumefaciens GV3101 into N. benthamiana leaves; LUC signal with 1 mM D-luciferin about 2 days after infiltration; remark: listed apart in the source
[6] = molecular target: T2, SnRK2.3-nLUC (Arabidopsis thaliana); experiment: as above; remark: listed apart in the source
[7] = molecular target: T3, SnRK2.6-nLUC (Arabidopsis thaliana); experiment: as above; remark: listed apart in the source

- binding [1]: binds
- binding [2]: binds
- binding [3]: binds
Molecule: cLUC-NUA (from UniProt A4GSN8 1-2093)

- binding [4]: binds
B1: EARLY IN SHORT DAYS 4 (ESD4) SUMO protease fused to the GAL4 AD (enzyme, UniProt Q94F30 1-489)
chain: MGAVAINRKRSDESFNFINQQSTNPLRNSPYFQASKKRRFSFAMSEDSGKPASSNPTISRISRYPDAKAPLRREIHAPSRGILRYGKAKSNDYCEKDANFFVRKYDDAKRSALEALRFVNKGKDFVDLGDEVEKEEVVSDDSSVQAIEVIDCDDDEEKKNLQPSFSSGVTDVKKGENFRVEDTSMMLDSLSLDRDVDNDASSLEAYRKLMQSAEKRNSKLEALGFEIVLNEKKLSLLRQSRPKTVEKRVEVPREPFIPLTEDEEAEVYRAFSGRNRRKVLATHENSNIDITGEVLQCLTPSAWLNDEVINVYLELLKERETREPKKYLKCHYFNTFFYKKLVSDSGYNFKAVRRWTTQRKLGYALIDCDMIFVPIHRGVHWTLAVINNRESKLLYLDSLNGVDPMILNALAKYMGDEANEKSGKKIDANSWDMEFVEDLPQQKNGYDCGMFMLKYIDFFSRGLGLCFSQEHMPYFRLRTAKEILRLRAD

- binding [5]: binds weakly
- binding [6]: binds weakly
- binding [7]: binds weakly
B2: cLUC-ESD4 (enzyme, UniProt Q94F30 1-489)
chain: MGAVAINRKRSDESFNFINQQSTNPLRNSPYFQASKKRRFSFAMSEDSGKPASSNPTISRISRYPDAKAPLRREIHAPSRGILRYGKAKSNDYCEKDANFFVRKYDDAKRSALEALRFVNKGKDFVDLGDEVEKEEVVSDDSSVQAIEVIDCDDDEEKKNLQPSFSSGVTDVKKGENFRVEDTSMMLDSLSLDRDVDNDASSLEAYRKLMQSAEKRNSKLEALGFEIVLNEKKLSLLRQSRPKTVEKRVEVPREPFIPLTEDEEAEVYRAFSGRNRRKVLATHENSNIDITGEVLQCLTPSAWLNDEVINVYLELLKERETREPKKYLKCHYFNTFFYKKLVSDSGYNFKAVRRWTTQRKLGYALIDCDMIFVPIHRGVHWTLAVINNRESKLLYLDSLNGVDPMILNALAKYMGDEANEKSGKKIDANSWDMEFVEDLPQQKNGYDCGMFMLKYIDFFSRGLGLCFSQEHMPYFRLRTAKEILRLRAD
